# From the supplement of paper PMC8728848
# Some of the results follow.
# B1: Sebin2 (Coprinopsis cinerea), A8PE78 (protein)
# chain: MTTPFYAYCHNVQDDNTWRLGLVFANRSTADEWWRAISEATSSIPITKSITRVTPQYYTHDIRVWNMYNFFVDGNIKSISDKFRGRLFITLEYDRSGRGVSVFPPLHIVDHVSGNWYYIRSKTAPHLFWFYDETRNAIYASKEKRTRFKVSIRNPSPQTPKDAIMINSDDVVIHIKESLYVGVDSYLGHIIPTRAYRTFKFGELEGGAIAGIEVAENAEERCSSTFDGASLYFVGPDSSSPGEPWELV
# How the values were obtained:
# Assay in all cases: glycan array binding signal (z-score within array); higher = stronger binding
# Conditions in all cases: glycan notation: IUPAC condensed, linker removed
# [1] = target: Gal(b1-4)GlcNAc(b1-3)Gal(b1-4)GlcNAc(b1-3)Gal(b1-4)GlcNAc
# In short: (§1)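 Arrays were curated from the Consortium for Functional Glycomics database, 3228 in total, and kept only where the protein sequence was available. Binding is expressed as a within-array Z-score. This score was averaged across arrays of the same protein sequence at different concentrations or buffers and across linkers, and negative values can be read as non-binding.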
# [2] = target: Gal(b1-4)GlcNAc(b1-3)Gal(b1-4)GlcNAc(b1-3)Gal(b1-4)GlcNAc(b1-2)Man(a1-3)[Gal(b1-4)GlcNAc(b1-3)Gal(b1-4)GlcNAc(b1-3)Gal(b1-4)GlcNAc(b1-2)Man(a1-6)]Man(b1-4)GlcNAc(b1-4)GlcNAc
# In short: as §1
# [3] = target: Gal(b1-4)GlcNAc(b1-3)Gal(b1-4)GlcNAc(b1-3)Gal(b1-4)GlcNAc(b1-2)Man(a1-3)[Gal(b1-4)GlcNAc(b1-3)Gal(b1-4)GlcNAc(b1-3)Gal(b1-4)GlcNAc(b1-2)Man(a1-6)]Man(b1-4)GlcNAc(b1-4)[Fuc(a1-6)]GlcNAc
# In short: as §1
# [4] = target: Gal(b1-4)GlcNAc(b1-3)Gal(b1-4)GlcNAc(b1-3)Gal(b1-4)GlcNAc(b1-2)[Gal(b1-4)GlcNAc(b1-3)Gal(b1-4)GlcNAc(b1-3)Gal(b1-4)GlcNAc(b1-6)]Man(a1-6)[Gal(b1-4)GlcNAc(b1-3)Gal(b1-4)GlcNAc(b1-3)Gal(b1-4)GlcNAc(b1-2)Man(a1-3)]Man(b1-4)GlcNAc(b1-4)[Fuc(a1-6)]GlcNAc
# In short: as §1
# [5] = target: Gal(b1-4)GlcNAc(b1-3)Gal(b1-4)GlcNAc(b1-3)Gal(b1-4)GlcNAc(b1-3)Gal(b1-4)GlcNAc(b1-2)Man(a1-3)[Gal(b1-4)GlcNAc(b1-3)Gal(b1-4)GlcNAc(b1-3)Gal(b1-4)GlcNAc(b1-3)Gal(b1-4)GlcNAc(b1-2)Man(a1-6)]Man(b1-4)GlcNAc(b1-4)GlcNAc
# In short: as §1
# [6] = target: Gal(b1-4)GlcNAc(b1-3)Gal(b1-4)GlcNAc(b1-3)Gal(b1-4)GlcNAc(b1-3)Gal(b1-4)GlcNAc(b1-2)Man(a1-3)[Gal(b1-4)GlcNAc(b1-3)Gal(b1-4)GlcNAc(b1-3)Gal(b1-4)GlcNAc(b1-3)Gal(b1-4)GlcNAc(b1-2)Man(a1-6)]Man(b1-4)GlcNAc(b1-4)[Fuc(a1-6)]GlcNAc
# In short: as §1
# [7] = target: Gal(b1-4)GlcNAc(b1-3)Gal(b1-4)GlcNAc(b1-3)Gal(b1-4)GlcNAc(b1-3)Gal(b1-4)GlcNAc(b1-2)[Gal(b1-4)GlcNAc(b1-3)Gal(b1-4)GlcNAc(b1-3)Gal(b1-4)GlcNAc(b1-3)Gal(b1-4)GlcNAc(b1-6)]Man(a1-6)[Gal(b1-4)GlcNAc(b1-3)Gal(b1-4)GlcNAc(b1-3)Gal(b1-4)GlcNAc(b1-3)Gal(b1-4)GlcNAc(b1-2)Man(a1-3)]Man(b1-4)GlcNAc(b1-4)[Fuc(a1-6)]GlcNAc
# In short: as §1
# [8] = target: Gal(b1-4)GlcNAc(b1-3)Gal(b1-4)GlcNAc(b1-3)Gal(b1-4)GlcNAc(b1-3)Gal(b1-4)GlcNAc(b1-3)Gal(b1-4)GlcNAc(b1-2)Man(a1-3)[Gal(b1-4)GlcNAc(b1-3)Gal(b1-4)GlcNAc(b1-3)Gal(b1-4)GlcNAc(b1-3)Gal(b1-4)GlcNAc(b1-3)Gal(b1-4)GlcNAc(b1-2)Man(a1-6)]Man(b1-4)GlcNAc(b1-4)GlcNAc
# In short: as §1
# [9] = target: Gal(b1-4)GlcNAc(b1-3)Gal(b1-4)GlcNAc(b1-3)Gal(b1-4)GlcNAc(b1-3)Gal(b1-4)GlcNAc(b1-3)Gal(b1-4)GlcNAc(b1-2)Man(a1-3)[Gal(b1-4)GlcNAc(b1-3)Gal(b1-4)GlcNAc(b1-3)Gal(b1-4)GlcNAc(b1-3)Gal(b1-4)GlcNAc(b1-3)Gal(b1-4)GlcNAc(b1-2)Man(a1-6)]Man(b1-4)GlcNAc(b1-4)[Fuc(a1-6)]GlcNAc
# In short: as §1
# [10] = target: Gal(b1-4)GlcNAc(b1-3)Gal(b1-4)GlcNAc(b1-3)Gal(b1-4)GlcNAc(b1-3)Gal(b1-4)GlcNAc(b1-3)Gal(b1-4)GlcNAc(b1-2)[Gal(b1-4)GlcNAc(b1-3)Gal(b1-4)GlcNAc(b1-3)Gal(b1-4)GlcNAc(b1-3)Gal(b1-4)GlcNAc(b1-3)Gal(b1-4)GlcNAc(b1-6)]Man(a1-6)[Gal(b1-4)GlcNAc(b1-3)Gal(b1-4)GlcNAc(b1-3)Gal(b1-4)GlcNAc(b1-3)Gal(b1-4)GlcNAc(b1-3)Gal(b1-4)GlcNAc(b1-2)Man(a1-3)]Man(b1-4)GlcNAc(b1-4)[Fuc(a1-6)]GlcNAc
# In short: as §1
# [11] = target: Gal(b1-4)GlcNAc(b1-3)Gal(b1-4)GlcNAc(b1-3)Gal(b1-4)GlcNAc(b1-3)Gal(b1-4)GlcNAc(b1-3)Gal(b1-4)GlcNAc(b1-3)Gal(b1-4)GlcNAc(b1-2)Man(a1-3)[Gal(b1-4)GlcNAc(b1-3)Gal(b1-4)GlcNAc(b1-3)Gal(b1-4)GlcNAc(b1-3)Gal(b1-4)GlcNAc(b1-3)Gal(b1-4)GlcNAc(b1-3)Gal(b1-4)GlcNAc(b1-2)Man(a1-6)]Man(b1-4)GlcNAc(b1-4)GlcNAc
# In short: as §1
# [12] = target: Gal(b1-4)GlcNAc(b1-3)Gal(b1-4)GlcNAc(b1-3)GalNAc
# In short: as §1
# [13] = target: Gal(b1-4)GlcNAc(b1-3)Gal(b1-4)GlcNAc(b1-3)[Gal(b1-4)GlcNAc(b1-3)Gal(b1-4)GlcNAc(b1-6)]GalNAc
# In short: as §1
# [14] = target: Gal(b1-4)GlcNAc(b1-3)Gal(b1-4)GlcNAc(b1-6)[Gal(b1-3)]GalNAc
# In short: as §1
# [15] = target: Gal(b1-4)GlcNAc(b1-3)Gal(b1-4)[Fuc(a1-3)]GlcNAc(b1-3)Gal(b1-4)[Fuc(a1-3)]GlcNAc
# In short: as §1
# [16] = target: Gal(b1-4)GlcNAc(b1-3)GalNAc
# In short: as §1
# [17] = target: Gal(b1-4)GlcNAc(b1-3)[Fuc(a1-3)GlcNAc(b1-6)]Gal(b1-4)Glc
# In short: as §1
# [18] = target: Gal(b1-4)GlcNAc(b1-3)[Gal(b1-4)GlcNAc(b1-6)]Gal(b1-4)GlcNAc
# In short: as §1
# [19] = target: Gal(b1-4)GlcNAc(b1-3)[GlcNAc(b1-6)]Gal(b1-4)GlcNAc
# In short: as §1
binder,measurement,setting,value
B1,glycan array binding signal (z-score),[1],-0.165
same,glycan array binding signal (z-score),[2],-0.131
same,glycan array binding signal (z-score),[3],-0.122
same,glycan array binding signal (z-score),[4],0.573
same,glycan array binding signal (z-score),[5],-0.118
same,glycan array binding signal (z-score),[6],-0.071
same,glycan array binding signal (z-score),[7],-0.1
same,glycan array binding signal (z-score),[8],-0.589
same,glycan array binding signal (z-score),[9],-0.14
same,glycan array binding signal (z-score),[10],0.421
same,glycan array binding signal (z-score),[11],0.143
same,glycan array binding signal (z-score),[12],0.049
same,glycan array binding signal (z-score),[13],0.177
same,glycan array binding signal (z-score),[14],0.106
same,glycan array binding signal (z-score),[15],-0.148
same,glycan array binding signal (z-score),[16],-0.264
same,glycan array binding signal (z-score),[17],-0.328
same,glycan array binding signal (z-score),[18],-0.371
same,glycan array binding signal (z-score),[19],-0.795
